Data from ChEMBL document CHEMBL1961873, “Compounds: GSK PKIS; Assays: Nanosyn kinase panel” (2012).
This is a selection; strong and weak results do not stand in their true shares.

Target: Tyrosine-protein kinase BTK (Homo sapiens) (UniProt Q06187)
Conditions: at 0.1 µM

Chain of UniProt Q06187 (Q06187 whole entry): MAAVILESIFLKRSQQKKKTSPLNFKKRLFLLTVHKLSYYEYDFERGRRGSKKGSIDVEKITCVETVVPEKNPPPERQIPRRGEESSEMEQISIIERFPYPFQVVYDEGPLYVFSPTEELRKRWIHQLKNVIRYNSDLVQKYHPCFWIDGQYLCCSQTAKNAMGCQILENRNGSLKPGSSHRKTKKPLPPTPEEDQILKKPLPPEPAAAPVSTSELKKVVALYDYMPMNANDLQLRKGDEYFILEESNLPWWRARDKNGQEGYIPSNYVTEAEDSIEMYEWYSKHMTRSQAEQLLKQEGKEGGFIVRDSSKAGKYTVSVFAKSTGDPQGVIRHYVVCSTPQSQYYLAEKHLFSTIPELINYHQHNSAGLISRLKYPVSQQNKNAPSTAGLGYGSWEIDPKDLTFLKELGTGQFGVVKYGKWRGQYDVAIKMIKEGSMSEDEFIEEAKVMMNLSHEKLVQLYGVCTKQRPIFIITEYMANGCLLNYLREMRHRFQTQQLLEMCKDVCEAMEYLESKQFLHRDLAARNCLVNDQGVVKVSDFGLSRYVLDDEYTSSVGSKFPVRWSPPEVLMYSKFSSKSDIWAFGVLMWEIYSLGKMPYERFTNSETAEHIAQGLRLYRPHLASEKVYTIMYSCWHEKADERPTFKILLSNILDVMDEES

| Structure (SMILES) | inhibition [%] |
| --- | --- |
| O=C1NC(=O)C(c2ccccc2)=C1Nc1ccccc1 | -1.36 |
| CS(=O)(=O)c1ccc(Oc2nccc(-c3c(-c4ccc(F)cc4)ncn3C3CCNCC3)n2)cc1 | -0.44 |
| Fc1ccc(Oc2nccc(-c3c(-c4ccc(F)cc4)ncn3C3CCNCC3)n2)cc1 | -4.19 |
| Cc1cccc(Oc2nccc(-c3c(-c4ccc(F)cc4)ncn3C3CCNCC3)n2)c1C | -0.86 |
| COc1ccccc1Oc1nccc(-c2c(-c3ccc(F)cc3)ncn2C2CCNCC2)n1 | -0.07 |
| O=C1NC(=O)C(c2cccc([N+](=O)[O-])c2)=C1Nc1cc(Cl)c(O)c(Cl)c1 | 1.4 |
| NC(=O)CCc1ccccc1Oc1nccc(-c2c(-c3ccc(F)cc3)ncn2C2CCNCC2)n1 | -0.99 |
| Fc1ccc(-c2ncn(C3CCNCC3)c2-c2ccnc(Oc3cccc(C(F)(F)F)c3)n2)cc1 | -0.1 |
| CC(C)(C)c1ccc(Oc2nccc(-c3c(-c4ccc(F)cc4)ncn3C3CCNCC3)n2)cc1 | -0.77 |
| Fc1ccc(-c2ncn(C3CCNCC3)c2-c2ccnc(Oc3ccc(Cl)cc3)n2)cc1 | 0.07 |
| Fc1ccc(-c2ncn(C3CCNCC3)c2-c2ccnc(Oc3cccc(F)c3)n2)cc1 | -0.06 |
| O=C(O)c1ccc(Oc2nccc(-c3c(-c4ccc(F)cc4)ncn3C3CCNCC3)n2)cc1 | -1.81 |
| O=C1NC(=O)C(c2ccccc2Cl)=C1Nc1cc(Cl)c(O)c(Cl)c1 | 0.41 |
| COc1ccccc1C1=C(Nc2ccccc2)C(=O)NC1=O | 1.08 |

Target: Tyrosine-protein kinase BTK (Homo sapiens) (UniProt Q06187)
Conditions: at 1 µM

| Structure (SMILES) | inhibition [%] |
| --- | --- |
| O=C1NC(=O)C(c2ccccc2)=C1Nc1ccccc1 | 1.02 |
| CS(=O)(=O)c1ccc(Oc2nccc(-c3c(-c4ccc(F)cc4)ncn3C3CCNCC3)n2)cc1 | -0.02 |
| Fc1ccc(Oc2nccc(-c3c(-c4ccc(F)cc4)ncn3C3CCNCC3)n2)cc1 | -3.63 |
| Cc1cccc(Oc2nccc(-c3c(-c4ccc(F)cc4)ncn3C3CCNCC3)n2)c1C | -0.39 |
| COc1ccccc1Oc1nccc(-c2c(-c3ccc(F)cc3)ncn2C2CCNCC2)n1 | 0.6 |
| O=C1NC(=O)C(c2cccc([N+](=O)[O-])c2)=C1Nc1cc(Cl)c(O)c(Cl)c1 | 1.62 |
| NC(=O)CCc1ccccc1Oc1nccc(-c2c(-c3ccc(F)cc3)ncn2C2CCNCC2)n1 | -0.94 |
| Fc1ccc(-c2ncn(C3CCNCC3)c2-c2ccnc(Oc3cccc(C(F)(F)F)c3)n2)cc1 | 2.74 |
| CC(C)(C)c1ccc(Oc2nccc(-c3c(-c4ccc(F)cc4)ncn3C3CCNCC3)n2)cc1 | -0.84 |
| Fc1ccc(-c2ncn(C3CCNCC3)c2-c2ccnc(Oc3ccc(Cl)cc3)n2)cc1 | 1.2 |
| Fc1ccc(-c2ncn(C3CCNCC3)c2-c2ccnc(Oc3cccc(F)c3)n2)cc1 | 3.39 |
| O=C(O)c1ccc(Oc2nccc(-c3c(-c4ccc(F)cc4)ncn3C3CCNCC3)n2)cc1 | -0.67 |
| O=C1NC(=O)C(c2ccccc2Cl)=C1Nc1cc(Cl)c(O)c(Cl)c1 | -0.19 |
| COc1ccccc1C1=C(Nc2ccccc2)C(=O)NC1=O | 1.15 |

Target: Tyrosine-protein kinase CSK (Homo sapiens) (UniProt P41240);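 note: value given is the averaged percent inhibition of CSK kinase activity, from the GSK PKIS kinase inhibitor set screening panel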
Conditions: at 0.1 µM

Chain of UniProt P41240 (P41240 whole entry, looked up): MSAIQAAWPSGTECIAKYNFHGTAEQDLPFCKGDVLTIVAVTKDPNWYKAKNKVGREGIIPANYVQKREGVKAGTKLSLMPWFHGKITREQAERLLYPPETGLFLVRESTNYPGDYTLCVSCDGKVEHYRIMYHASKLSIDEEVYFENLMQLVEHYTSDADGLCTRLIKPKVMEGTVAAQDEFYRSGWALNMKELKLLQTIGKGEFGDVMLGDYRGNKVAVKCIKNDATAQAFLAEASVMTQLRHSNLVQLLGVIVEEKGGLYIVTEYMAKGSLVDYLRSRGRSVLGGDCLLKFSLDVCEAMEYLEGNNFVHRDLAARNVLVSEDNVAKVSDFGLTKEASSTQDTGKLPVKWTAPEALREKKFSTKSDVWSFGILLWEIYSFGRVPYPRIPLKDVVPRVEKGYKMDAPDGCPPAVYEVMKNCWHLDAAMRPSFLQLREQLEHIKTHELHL

| Structure (SMILES) | inhibition [%] |
| --- | --- |
| O=C1NC(=O)C(c2ccccc2)=C1Nc1ccccc1 | 6.16 |
| CS(=O)(=O)c1ccc(Oc2nccc(-c3c(-c4ccc(F)cc4)ncn3C3CCNCC3)n2)cc1 | -0.29 |
| Fc1ccc(Oc2nccc(-c3c(-c4ccc(F)cc4)ncn3C3CCNCC3)n2)cc1 | 1.71 |
| Cc1cccc(Oc2nccc(-c3c(-c4ccc(F)cc4)ncn3C3CCNCC3)n2)c1C | -0.25 |
| COc1ccccc1Oc1nccc(-c2c(-c3ccc(F)cc3)ncn2C2CCNCC2)n1 | 3.89 |
| O=C1NC(=O)C(c2cccc([N+](=O)[O-])c2)=C1Nc1cc(Cl)c(O)c(Cl)c1 | 0.51 |
| NC(=O)CCc1ccccc1Oc1nccc(-c2c(-c3ccc(F)cc3)ncn2C2CCNCC2)n1 | -0.65 |
| Fc1ccc(-c2ncn(C3CCNCC3)c2-c2ccnc(Oc3cccc(C(F)(F)F)c3)n2)cc1 | 5.43 |
| CC(C)(C)c1ccc(Oc2nccc(-c3c(-c4ccc(F)cc4)ncn3C3CCNCC3)n2)cc1 | 2.73 |
| Fc1ccc(-c2ncn(C3CCNCC3)c2-c2ccnc(Oc3ccc(Cl)cc3)n2)cc1 | 0.72 |
| Fc1ccc(-c2ncn(C3CCNCC3)c2-c2ccnc(Oc3cccc(F)c3)n2)cc1 | 1.11 |
| O=C(O)c1ccc(Oc2nccc(-c3c(-c4ccc(F)cc4)ncn3C3CCNCC3)n2)cc1 | 0.4 |
| O=C1NC(=O)C(c2ccccc2Cl)=C1Nc1cc(Cl)c(O)c(Cl)c1 | 7.73 |
| COc1ccccc1C1=C(Nc2ccccc2)C(=O)NC1=O | 3.93 |
